US6544989B2, “Benzazoles: benzoxazole, benzthiazole and benzimidazole derivatives” (Syngenta Limited, priority 1998, dated 2003)

Experiments:
Settings in all cases: 500 ppm by weight; mortality assessed usually between three and five days after treatment
[1] = system: Spodoptera exigua; assay: Pesticidal test, Spodoptera exigua mortality
[2] = system: Tetranychus urticae
[3] = system: Heliothis virescens
[4] = system: Musca domestica
[5] = system: Myzus persicae; assay: Pesticidal test, Myzus persicae mortality

Row | Compound | LAPHEG = Spodoptera exigua, grading of mortality (score) [1] | TETRUR = Tetranychus urticae, grading of mortality (score) [2] | HELIVI = Heliothis virescens, grading of mortality (score) [3] | MUSCDO AK = Musca domestica (kill), grading of mortality (score) [4] | MYZUPE = Myzus persicae, grading of mortality (score) [5]
1 | COC(=O)CSc1nc2cc(CC(=O)Nc3snc(C)c3Cl)ccc2o1 [229(A3)] | 0 (0 indicates less than 40% mortality) | 0 (0 indicates less than 40% mortality) | 0 (0 indicates less than 40% mortality) | 0 (0 indicates less than 40% mortality) | 0 (0 indicates less than 40% mortality)
2 | Cc1nsc(NC(=O)Cc2ccc3oc(CCc4ccccc4)nc3c2)c1Cl [247(A3)] | 0 (0 indicates less than 40% mortality) | 0 (0 indicates less than 40% mortality) | 0 (0 indicates less than 40% mortality) | 0 (0 indicates less than 40% mortality) | 9 (9 indicates 80-100% mortality)
3 | Cc1nsc(NC(=O)Cc2ccc3oc(-c4ccccc4)nc3c2)c1Cl [248(A3)] | 0 (0 indicates less than 40% mortality) | 0 (0 indicates less than 40% mortality) | 5 (5 indicates 40-79% mortality) | 0 (0 indicates less than 40% mortality) | 0 (0 indicates less than 40% mortality)
4 | Cc1nsc(NC(=O)Cc2ccc3oc(-c4ccc(C(C)(C)C)cc4)nc3c2)c1Cl [252(A3)] | 0 (0 indicates less than 40% mortality) | 0 (0 indicates less than 40% mortality) | 0 (0 indicates less than 40% mortality) | 0 (0 indicates less than 40% mortality) | 0 (0 indicates less than 40% mortality)
5 | Cc1nsc(NC(=O)Cc2ccc3oc(-c4ccc(Cl)cc4Cl)nc3c2)c1Cl [257(A3)] | 0 (0 indicates less than 40% mortality) | 9 (9 indicates 80-100% mortality) | 5 (5 indicates 40-79% mortality) | 5 (5 indicates 40-79% mortality) | 0 (0 indicates less than 40% mortality)
6 | Cc1nsc(NC(=O)Cc2ccc3oc(-c4cc(Cl)cc(Cl)c4)nc3c2)c1Cl [261(A3)] | 0 (0 indicates less than 40% mortality) | 0 (0 indicates less than 40% mortality) | 0 (0 indicates less than 40% mortality) | 0 (0 indicates less than 40% mortality) | 0 (0 indicates less than 40% mortality)
7 | Cc1nsc(NC(=O)Cc2ccc3oc(-c4sccc4Cl)nc3c2)c1Cl [331(A3)] | 0 (0 indicates less than 40% mortality) | 0 (0 indicates less than 40% mortality) | 0 (0 indicates less than 40% mortality) | 0 (0 indicates less than 40% mortality) | 0 (0 indicates less than 40% mortality)
8 | Cc1nsc(NC(=O)Cc2ccc3oc(O)nc3c2)c1Cl [351(A3)] | 0 (0 indicates less than 40% mortality) | 0 (0 indicates less than 40% mortality) | 0 (0 indicates less than 40% mortality) | 0 (0 indicates less than 40% mortality) | 0 (0 indicates less than 40% mortality)
9 | Cc1nsc(NC(=O)Cc2ccc3oc(S)nc3c2)c1Cl [352(A3)] | 0 (0 indicates less than 40% mortality) | 0 (0 indicates less than 40% mortality) | 0 (0 indicates less than 40% mortality) | 0 (0 indicates less than 40% mortality) | 5 (5 indicates 40-79% mortality)
10 | Cc1nsc(NC(=O)Cc2ccc3oc(CC(C)(C)C)nc3c2)c1Cl [Compound 15(A3)] | 9 (9 indicates 80-100% mortality) | 9 (9 indicates 80-100% mortality) | 9 (9 indicates 80-100% mortality) | 0 (0 indicates less than 40% mortality) | 9 (9 indicates 80-100% mortality)
